Assay results from PubChem BioAssay AID1346428 (National Center for Advancing Translational Sciences (NCATS), 2018).
Screen size: about 48,000 compounds; about 1,200 (2.5%) were called active. About 2% were inconclusive and are not listed.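 The calls were made as follows: active = activation of at least 60% and not above a set upper limit (about 1 call in 100 departs from these limits); inconclusive = activation of 40% to 60%, or above that upper limit; inactive = activation under 40%.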 This is one part of the list.

What follows are compounds tested against Probable G-protein coupled receptor 32 (Homo sapiens) (UniProt O75388) (assay: qHTS for Agonists of Human Resolvin D1 Receptor DRV1). Settings: CHO-K1 GPR32 beta-arrestin PathHunter luminescence, 90 min; at 76.9 µM; hits give high values; zero percent set by DMSO-only wells.
How it was run: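 Agonism was scored by beta-Gal fragment complementation (chemiluminescent read, 1 h detection at ambient temperature) reporting beta-arrestin binding to GPR32 in engineered CHO-K1 cells. Compound treatment lasted 90 min at 37 C, normalized to a DMSO basal control.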
Also: 0% is about no effect.

Chain of UniProt O75388 (O75388 whole entry, looked up, the tested form may be a part): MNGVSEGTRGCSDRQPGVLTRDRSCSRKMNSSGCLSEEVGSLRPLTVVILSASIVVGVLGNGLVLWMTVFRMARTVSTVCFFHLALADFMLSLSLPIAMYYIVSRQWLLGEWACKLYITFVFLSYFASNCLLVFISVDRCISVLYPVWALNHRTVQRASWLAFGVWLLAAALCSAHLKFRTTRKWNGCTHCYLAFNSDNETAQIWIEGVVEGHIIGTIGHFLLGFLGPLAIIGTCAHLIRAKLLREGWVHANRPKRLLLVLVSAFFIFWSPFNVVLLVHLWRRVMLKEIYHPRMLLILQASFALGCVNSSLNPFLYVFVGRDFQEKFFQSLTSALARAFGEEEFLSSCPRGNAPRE

Row | Compound | activation
1 | O=C(NCc1ccc(Cl)cc1)C1CCN(c2nn3cc(-c4ccc(F)cc4)nc3s2)CC1 | inactive: 4.43%
2 | CC1CN(C(=O)NCc2ccccc2)c2cc(Cl)ccc2O1 (configuration not stated) | inactive: -21%
3 | CCCNC(=O)CCC(=O)N1Cc2cccc(OC)c2Oc2ncccc21 | inactive: -3.79%
4 | O=C(c1ccc2c(c1)OCCO2)N1CCCCC1 | inactive: 4.68%
5 | COc1ccc(Cl)cc1NC(=O)c1cc(-c2ccc3c(c2)OCO3)on1 | inactive: 10.8%
6 | COc1ccc(NC(=O)c2nc(S(C)(=O)=O)ncc2N(Cc2ccc(C)cc2)Cc2ccco2)cc1Cl | inactive: -15.8%
7 | COc1cccc(CNC(=O)c2cc(-c3ccc(Cl)s3)nc3ccccc23)c1 | inactive: -1.11%
8 | COc1ccc(C)cc1NC(=O)N1CCN(S(=O)(=O)c2ccc3c(ccn3C)c2)CC1 | inactive: -0.304%
9 | CCCCc1cc(=O)oc2cc(C)c3c(C(C)(C)C)coc3c12 | inactive: -4.32%
10 | Cc1ncc(CO)c2c1Oc1nc(-c3ccc(Cl)cc3)nc(SCC(=O)N3CCCCC3)c1C2 | inactive: 4.06%
11 | Cc1cccc(CSc2nc3c(sc4ccccc43)c(=O)n2CCC(=O)NC(C)C)c1 | inactive: -23.6%
12 | CCN(C(=O)CCc1nc(-c2ccc(C)cc2)no1)c1cccc(C(F)(F)F)c1 | inactive: -17.4%
13 | CCCS(=O)(=O)N1CC(=O)N(c2cccc(F)c2)C(C)(C(=O)NC2CCCCCC2)C1 (configuration not stated) | inactive: 1.34%
14 | COc1ccc(C(=O)Nc2ccc(S(=O)(=O)Nc3cc(C)nc(C)n3)cc2)cc1 | inactive: -22.7%
15 | O=C(CCS(=O)(=O)c1cc2c(cc1Cl)NC(=O)CO2)NCCc1ccccc1 | inactive: -5.6%
16 | CCOC(=O)c1c(C)[nH]c(CCC(=O)Nc2ccccc2C(F)(F)F)c1C | inactive: -3.01%
17 | CCc1ccc(NC(=O)CSc2nnc3[nH]c(=O)cc(-c4ccccc4)n23)cc1 | inactive: -12.7%
18 | COC(=O)c1ccc2c(=O)n3nc(Nc4ccc(F)cc4F)sc3nc2c1 | inactive: -2.93%
19 | COc1ccc(CN2CCc3c(c(=O)n4ncc(C(=O)N5CCN(c6ccccc6F)CC5)c4n3C)C2)cc1 | inactive: -10.3%
20 | COc1cc(CNc2ccc3[nH]c(=O)[nH]c3c2)ccc1OCc1ccc(F)cc1Cl | inactive: 10.9%
21 | COc1ccc(NC(=O)c2c(NC(=O)C(F)(F)F)sc3c2CCCCC3)cc1 | inactive: 28.6%

Row | Compound | activation
22 | CCCCC1CCC(C(=O)N2CC(=O)Nc3ccc(C)cc3C2c2ccc(F)cc2)CC1 (configuration not stated) | inactive: -27%
23 | COc1ccc(Cn2ccc3nc(C)c(C(=O)N4CCN(c5cccc(OC)c5)CC4)cc3c2=O)cc1 | inactive: -14.3%
24 | Cc1cccc(N2CCN(C(=O)c3nn(C)c4c3CS(=O)(=O)c3ccccc3-4)CC2)c1C | inactive: 3.23%
25 | Cc1cc(NS(=O)(=O)c2ccc(N)cc2)no1 | inactive: 8.54%
26 | CS(=O)(=O)N(Cc1ccccc1)c1ccc(C(=O)Nc2cccc(Cl)c2)cc1 | inactive: 18.1%
27 | COc1ccc(CNC(=O)c2ccc3c(O)c(S(=O)(=O)c4ccccc4)c(=O)[nH]c3c2)cc1 | inactive: -2.43%
28 | CC(=O)c1cccc(NC(=O)CN2C(=O)CCc3cc(S(=O)(=O)N4CCCCC4)ccc32)c1 | inactive: -17.4%
29 | O=C(Nc1cccc(C(F)(F)F)c1)Nc1nnc(N2CCCCCC2)s1 | inactive: 3.39%
30 | COCCCNC(=O)CN1C(=O)c2cccnc2Sc2ccccc21 | inactive: -5.56%
31 | COc1ccccc1N1CCN(C(=O)c2cc(-c3ccc(C)c(F)c3)on2)CC1 | inactive: -16%
32 | COc1cccc2cc(C(=O)Nc3ccc(CC(=O)O)cc3)c(=O)oc12 | inactive: -14.3%
33 | Cc1ccc(NC(=O)CSc2nc(-c3ccco3)cc(C(F)(F)F)n2)c(C)c1 | inactive: -17.9%
34 | COc1ccc(-c2cc(C(=O)Nc3sc4c(c3C(N)=O)CCCC4)no2)cc1 | inactive: 1.03%
35 | CCN(CC)CCNC(=O)C(=O)Nc1c2c(nn1-c1ccc(F)cc1)CSC2 | inactive: -25.6%
36 | CCOc1ccc(S(=O)(=O)N2Cc3ccccc3CC2C(=O)Nc2ccc(NC(C)=O)cc2)cc1 (configuration not stated) | inactive: 8.16%
37 | CCCCN1CC(c2nc3ccccc3n2CCCCOc2cc(C)cc(C)c2)CC1=O (configuration not stated) | inactive: 6.68%
38 | CC(C)(C)C(=O)C(Oc1ccc(Cl)cc1)n1ccnc1 (configuration not stated) | inactive: -67.1%
39 | CCNC(=O)c1c(NC(=O)Cc2coc3ccc(CC)cc23)sc2c1CCCC2 | inactive: -1.62%
40 | Cc1oc2ncn(CC(C)C)c(=O)c2c1C(=O)N(CCN(C)C)Cc1ccccc1 | inactive: -7.86%
41 | CCCCNC(=O)c1ccc2c(c1)N(CC)C(=O)c1ccccc1S2 | inactive: -18.5%
42 | Cc1ccc2c(c1)N(C(=O)N1CCC(C(=O)NCc3ccccc3C)CC1)CC(C)O2 (configuration not stated) | inactive: 7.27%

Row | Compound | activation
43 | CCCCNC(=O)c1c(-c2ccccc2)c(-c2ccccc2)nn(C)c1=O | inactive: -24.9%
44 | CC(=O)N1CCCc2cc(S(=O)(=O)N3CCN(c4ccccc4F)CC3)ccc21 | inactive: -0.0187%
45 | COc1cccc(C2C(C(=O)Nc3ccc(Cl)cc3)=C(C)Nc3nc4ccccc4n32)c1OC (configuration not stated) | inactive: -2.19%
46 | COc1ccc(N2CCN(C(=O)C3CCCN(C(=O)c4cc5sccc5n4C)C3)CC2)cc1 (configuration not stated) | inactive: -8.24%
47 | CCOC(=O)c1c(C)n(-c2ccccc2)c2ccc(OC(=O)COc3ccccc3)cc12 | inactive: 9.79%
48 | NC(=NCCCCCCN=C(N)/N=C(\N)Nc1ccc(Cl)cc1)/N=C(\N)Nc1ccc(Cl)cc1 | active: 86.5%
49 | CC(=O)N1c2ccc(S(=O)(=O)NCc3ccccc3Cl)cc2CC1C (configuration not stated) | inactive: 4.78%
50 | CCCc1nnc(NC(=O)c2cc(=O)c3ccccc3o2)s1 | inactive: 2.45%
51 | CC1=C(C(=O)Nc2cccnc2)C(c2cccc(F)c2)n2nc(SCc3ccccc3F)nc2N1 (configuration not stated) | inactive: 3.42%
52 | O=C(CSc1nc(=O)[nH]c2c1CCCC2)NCc1ccccc1Cl | inactive: -8.06%
53 | COc1ccc(C)cc1NC(=O)c1cc(S(=O)(=O)N2CCOCC2)cn1C | inactive: -23.6%
54 | CCCCNC(=O)CN1C(=O)c2cccnc2Sc2ccccc21 | inactive: -12.1%
55 | COc1ccc(CNC(=O)CCS(=O)(=O)c2cc(Br)cc3c2N(C(C)=O)C(C)C3)cc1 (configuration not stated) | inactive: -8.82%
56 | CCOc1ccccc1NC(=O)CCCc1nc(-c2ccccc2Cl)no1 | inactive: -8.58%
57 | COc1cc2[nH]c(=O)n(Cc3ccc(C(=O)N4CCN(c5ccc(Cl)cc5)CC4)cc3)c(=O)c2cc1OC | inactive: 0.537%
58 | O=C(Nc1cccc(Cl)c1Cl)c1ccc2c(c1)N(Cc1cccc(Cl)c1)C(=O)c1ccccc1S2=O (configuration not stated) | inactive: -9.86%
59 | Cc1ccc(NC(=O)c2sc3ncn(Cc4cccc(F)c4)c(=O)c3c2C)c(Br)c1 | inactive: -0.476%
60 | Cc1ccc(C)c(NC(=O)Cn2nc(C)c3nn(-c4ccc(Cl)cc4)c(C)c3c2=O)c1 | inactive: -2.55%
61 | Cc1ccc(N(Cc2cccs2)C(=O)C(C)Oc2ccc(Cl)c(C)c2)cc1 (configuration not stated) | inactive: -4.09%
62 | CCn1c2ccccc2c2cc(CN3CCN(Cc4cc(OC)c(O)c(OC)c4)CC3)ccc21 | inactive: -29.2%
63 | COc1ccc(N2CCN(c3ccc(-c4nc(-c5ccccc5)no4)cc3[N+](=O)[O-])CC2)cc1 | inactive: -12.7%

Row | Compound | activation
64 | CCOc1ccc(CCNC(=O)c2cc3c(=O)n(CC)c4ccccc4c3s2)cc1OCC | inactive: -3.76%
65 | CCc1cccc(NC(=O)CSc2nncn3c2cc2sccc23)c1 | inactive: 9.05%
66 | Cc1c(C)n(Cc2ccccc2)c2ccc(C(=O)N3CCN(c4ccc(F)cc4)CC3)cc12 | inactive: -30.1%
67 | Cc1c(C(=O)O)c(O)cc2c1C(=O)c1c(O)c([C@@H]3O[C@H](CO)[C@@H](O)[C@H](O)[C@H]3O)c(O)c(O)c1C2=O | inactive: -63.8%
68 | CC(C)CCNC(=O)c1ccc2c(c1)NC(=O)C(C(C)C)N2 (configuration not stated) | inactive: 2.21%
69 | Cc1ccc(Cl)cc1N1CCN(C(=O)CN2C(=O)COc3ccc(S(=O)(=O)N4CCCCCC4)cc32)CC1 | inactive: -14.2%
70 | COc1ccc(S(=O)(=O)NCCSc2nnnn2-c2ccccc2)cc1OC | inactive: 16.8%
71 | Cc1ccccc1Nc1c(-c2cccc(Cl)c2)nc2ncccn12 | inactive: -31%
72 | Cn1cnc(S(=O)(=O)N2CCCC(C(=O)NCc3ccc(Cl)cc3)C2)c1 (configuration not stated) | inactive: -7.39%
73 | CCN(CC)S(=O)(=O)c1ccc2c(c1)N(CC(=O)N1CCN(c3ccc(OC)cc3)CC1)C(=O)CO2 | inactive: -20.4%
74 | O=C(CSc1nc2ncccc2[nH]1)Nc1cc(F)ccc1F | inactive: -4.29%
75 | O=C(CCn1c(=O)c2cccn2c2cccnc21)NCc1ccccc1Cl | inactive: -8.72%
76 | CCOc1ccc(C(=O)c2cn(CC(=O)Nc3ccc4c(c3)OCO4)c3ccc(OC)cc3c2=O)cc1 | inactive: 1.47%
77 | COc1cccc(N2CCN(C(=O)C3CCCN(S(=O)(=O)c4cccc5nsnc45)C3)CC2)c1 (configuration not stated) | inactive: 23.1%
78 | Cc1ccc(CNC(=O)CCc2c(C)nn(-c3ccc(N4CCOCC4)nn3)c2C)cc1 | inactive: 0.499%
79 | CCOc1ccc2c(c1)c(=O)c(C(=O)c1ccc(CC)cc1)cn2CC(=O)Nc1ccccc1OC | inactive: 8.08%
80 | COc1ccc(OC)c(NC(=O)Cn2c(=O)c3cccn3c3ccccc32)c1 | inactive: -18.2%
81 | CCn1c(=O)n(-c2ccc3c(c2)OCO3)c2nc(-c3ccc(C(C)C)cc3)nc(C(N)=O)c21 | inactive: -7.47%
82 | O=C(Nc1cccc(Cl)c1)C1CCCN(c2nn3cc(-c4ccc(F)cc4)nc3s2)C1 (configuration not stated) | inactive: -0.378%
